# In the supplement of paper PMC11417369:
# ± gives the standard deviation of the averaged measurements. The list shows a part of the results.
# Test system: PfAP2-EXP AP2 domain (GST-tagged)
# Experiment: gcPBM binding intensity (ln(normalized median fluorescence intensity)); higher = stronger DNA binding
# In short: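 Plasmodium falciparum DNA-binding domains carrying a GST tag were expressed in E. coli and applied for 1 h, at about 25 μg on average, to an Agilent 4 × 180k array. The array held primer-extended double-stranded 36-bp intergenic genomic probes together with negative controls, and binding took place in 1× PBS with 1% milk, 0.2 mg/ml BSA, 0.5% salmon testes DNA and 0.03% Triton X-100. An Alexa488 anti-GST antibody detected bound protein, and the array was scanned at 488 nm. Binding intensity is taken as the highest Masliner-normalised natural-log median intensity across replicate spots of either probe orientation.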
row,Sequence,gcPBM binding intensity (ln)
1,TATACGTATTTTATATGTACACATATACATATTTAT [XGTACX_site5301],8.64 ± 0.33
2,TTTTCTTTTAAGTTTGTTTTACACTTTTTATTTTGA [CACACA_negctrl_site1581],8.56 ± 0.56
3,ACTATATTTCATAACAGTACATATTCCTGAAACATC [XGTACX_site4924],8.69 ± 0.4
4,CATGCTTATATGTGCACACACAAAAGAAAAGAAAAA [CACACA_site1655],8.925 ± 0.064
5,ACAATATAAAAAAATTGTACATAATATATAATATTA [XGTACX_site1040],8.3 ± 0.38
6,TATACATAAAAAAATTTTACCAGGTTAATACAAATA [CACACA_negctrl_site1171],8.7 ± 0.4
7,TTCCTTTGTTGTCGTTGTACTTATATGGTTATAATT [XGTACX_site3082],9.31 ± 0.37
8,TACCTTATGTTATATACACACATATAACATAATATA [CACACA_site6741],8.52 ± 0.31
9,ATATATATATATAGTAGTACTCTCTCTGTATATATA [XGTACX_site3754],10.1 ± 0.42
10,ATTTAGAAAAATAAAACACACATATATCTGTAAATA [CACACA_site6119],8.46 ± 0.57
11,ATATGTAAAATATGGTGTACAATCAAATAAAAAAAA [XGTACX_site6270],8.84 ± 0.33
12,ATTAATATATTTACCACACACCCATTTCGATTTTAT [CACACA_site3605],8.88 ± 0.46
13,TATTTTATTTTTTGTTGTACATATATATTATATATA [XGTACX_site4513],8.83 ± 0.41
14,CATATAAAAGGACACACACACACATATATATATATA [CACACA_site4674],10 ± 0.43
15,ATGTTTAAATTTTTCAGTACATATATTCTAGTAAAA [XGTACX_site1010],8.4 ± 0.41
16,GATATATTACTTAAAATACACACCATGGAAAAGTTT [CACACA_site2606],8.66 ± 0.46
17,GAATATGTTAACATTTGTACATAAAATTTTTTACAA [XGTACX_site2444],8.7 ± 0.3
18,AATATATATATATATCCACACACATACATATATTAA [CACACA_site7907],8.54 ± 0.35
19,AAAATATTATTACAGAAACAAAAAGAAAAATATATA [GTGCAC_negctrl_site285],8.66 ± 0.35
20,ATGGTTTTTATTTTATGTACTTACTAAAATGAATAA [XGTACX_site4317],8.6 ± 0.38
21,TACATAAAAATATATGCATGTTCTTATTTAATAAAA [TGCATGCA_site743],8.28 ± 0.35
22,TAATTGTAGACATGCACACACAAATATTATATATGT [CACACA_site845],8.72 ± 0.45

row,Sequence,gcPBM binding intensity (ln)
1,CTAATATAGGTATGCACACACAATATGTACATATTT [CACACA_site7558],8.77 ± 0.31
2,ATATAAAAAAGGGAGGTAAATGAATGTGAAACCCAA [GTGCAC_negctrl_site359],8.88 ± 0.46
3,TTTTAATTAGTACAAACACACATATACACCCAAAAA [CACACA_site5422],8.97 ± 0.4
4,TTTCAAATATATATAGCACACAAGGTATAATATAAA [CACACA_site877],8.53 ± 0.37
5,TTCACTAATAAATACGCACACATATACATATATATA [CACACA_site1383],8.72 ± 0.17
6,TAATTTTTTTTAAACACACACATTACATTCAAAAAT [CACACA_site127],8.47 ± 0.3
7,AAGGTATAGAAACACACACACGTGAATATAGTTTAA [CACACA_site5109],8.62 ± 0.38
8,TATATAACATATATATGTACACATAATATCAGATTT [XGTACX_site1041],8.45 ± 0.33
9,CGTTATATAATAAAGGTGCATAGATATATCATTATA [GTGCAC_site9774],8.63 ± 0.15
10,AATATTTTTCAATTTCATGTGCATTCATTGAAGTTA [CACACA_negctrl_site1232],8.55 ± 0.42
11,TTCTTAAATATATTCAACATACATAATATATAATCT [CACACA_negctrl_site1806],8.33 ± 0.45
12,TATATATGTATATATTGTACTTTAAGACAAATATAT [XGTACX_site1052],8.41 ± 0.46
13,AAAAATAGAGCAGCTCTCATATTTTTATGTGCAATA [CACACA_negctrl_site837],8.42 ± 0.51
14,ACAAAAATATTTGTAAAAAGAAATATAAATAAATAA [TGCATGCA_negctrl_site357],8.54 ± 0.42
15,GCATTTATGAAAAATGTACACACATCAAATGCTTAT [CACACA_site9347],8.65 ± 0.52
16,TATTACACACAATATTGTACACATAGGAAAAATATT [XGTACX_site1726],8.77 ± 0.4
17,AGGATATATTATATGTACACACACATATAAGGGATT [GTGCAC_negctrl_site47],8.58 ± 0.41
18,TATTTTTTACATTCGTGTACGCATTTTTGTGAATTT [XGTACX_site5339],8.82 ± 0.32
19,TCTAATACACAATGTTGTACATATTAATATATATGT [XGTACX_site2931],8.69 ± 0.38
20,ATCATTCTTAAACCGTGTACTTATTATTTTTTTTTT [XGTACX_site2798],9.01 ± 0.35
21,CATCCGTTGATATATGCATGCATATTGTTATTACCA [TGCATGCA_site868],9.92 ± 0.16
22,AAAATACACGATAGTTGTACATTAAATGTATACAAT [XGTACX_site360],8.71 ± 0.36

row,Sequence,gcPBM binding intensity (ln)
1,AAATGACTATATAAAAGTACTAGAAAGTATAAATAT [XGTACX_site944],8.76 ± 0.4
2,AGGAGGATAGTTCACAGTACCCAGTAACTCTACGGA [XGTACX_site1997],8.53 ± 0.43
3,CCTCTCATTTTATATAGTACATATTTCAAAAAAAAA [XGTACX_site488],8.43 ± 0.26
4,GCATATATGGATATATAGGTATATATAAATGCAATA [GTGCAC_negctrl_site24],8.54 ± 0.39
5,GCATATTTTCCCTGTGAATAAAGTTTTTTTTTTTAT [XGTACX_negctrl_site87],8.54 ± 0.39
6,ATATAAAAAAAAAATTGTACAAAAATATATACATAT [XGTACX_site469],8.53 ± 0.42
7,TATAAAGATATAAATGCACACGTATTAAAAAAAAAA [CACACA_site8223],8.74 ± 0.3
8,TTTATATATCAATACATTATGTATTAAGTCTTACAT [TGCATGCA_negctrl_site499],8.63 ± 0.34
9,CAAAAAAAATTATACACACACACACCGATATATATA [CACACA_site4719],8.77 ± 0.45
10,GGTATATAAAAATATTGTACGAAAATATGCATATAA [XGTACX_site2501],8.85 ± 0.35
11,TTTTAATTAAAAAAATATATAATAAAATTAAATTAT [CACACA_negctrl_site95],8.23 ± 0.33
12,AAATATAAAAAATATACACACATATAAAATCTATAT [CACACA_site7406],8.4 ± 0.3
13,GTATGTTAATTTAATTGTACAAAAAGATACACTGAT [XGTACX_site5710],8.75 ± 0.34
14,TTTTAAAAAAAACAAAAACATTGTCATATGGAAAAT [CACACA_negctrl_site297],8.75 ± 0.41
15,AGGAACAATATATTTGCACACAAAAAATATATATTT [CACACA_site3316],8.62 ± 0.4
16,AACATACCCATATACACACACACATAAATACAGATA [CACACA_site4744],8.73 ± 0.64
17,ATGTTAATCATTAAAAATAAAGTTTAATATAAGAAT [XGTACX_negctrl_site155],8.45 ± 0.49
18,CAAAACAAGCAAAAATGTACTTGATAAATATTTTCT [XGTACX_site1776],8.37 ± 0.4
19,ATTTAATTCTTTTGTTATAAAATTTTAGTATATATA [CACACA_negctrl_site1649],8.7 ± 0.44
20,AATACCGGAAAGCAAACACACATTTTAAAACCATAA [CACACA_site3862],8.79 ± 0.46
21,ATAATAAATGATAGCACACATATGTACATATATACA [CACACA_site864],8.63 ± 0.24
22,GATTATCTATCGCTTGAATGAAATGAAATCATGCAA [GTGCAC_negctrl_site471],8.41 ± 0.42

row,Sequence,gcPBM binding intensity (ln)
1,AAATAAAATAAAAGCACACAAAATGTAAATAATTAT [CACACA_site2775],8.79 ± 0.32
2,CGCGAACATACATACACACACATATTTATATAGGTA [CACACA_site6241],8.44 ± 0.46
3,AAAATACTTTGAATTTGTACATATAGACATAATATT [XGTACX_site6181],8.31 ± 0.38
4,AAAGAAATAAAAAAAAGTACACAATTATAAATATAT [XGTACX_site3428],8.79 ± 0.33
5,GTATGTAATATTTTAGTGCAAAAAAAAAAAAAAAAA [GTGCAC_site9790],8.32 ± 0.19
6,TATATATATATAATTTGTACATATATATGTAACAAT [XGTACX_site8728],9.72 ± 0.31
7,TTCTGCTACCACTTGAATGTCAATGAAATTAAAAAA [CACACA_negctrl_site1164],8.55 ± 0.19
8,ACTATAAATATTTATAAACACACAAATATATATATT [CACACA_site7891],8.78 ± 0.3
9,ATTTATAAAACAGGCACACATATAATAAATTTTATA [CACACA_site2600],8.7 ± 0.61
10,TAATAATTATTGCACGCACACAAAAACCTATAGATT [CACACA_site2931],8.68 ± 0.36
11,ATTTTTTTTTTTACAGTGGAACCATATTTGCTCATT [CACACA_negctrl_site940],8.48 ± 0.32
12,ATACAATACACCGAACGTACATAAATCTATCTTTTA [XGTACX_site3668],8.66 ± 0.38
13,TTTTGTACAAAAATAATGCACACTATATCAAGTTTT [CACACA_site3595],8.9 ± 0.37
14,AAGAAAATATATTCACATGAAGAATTAAAATAAAAC [TGCATGCA_negctrl_site119],8.86 ± 0.58
15,ATATAAAAAGGAAAAAGTACAAAAAAATGTTTGTGA [XGTACX_site8552],8.52 ± 0.45
16,TTTTTTTTTTTTTTTTTTGGTGAGAGAAGAAAATTC [CACACA_negctrl_site950],8.06 ± 0.34
17,CAAATTATTATTTAAGCACACATGTTTATTTTTTTT [CACACA_site2672],8.62 ± 0.32
18,TATGTGCCAAAACACACACACATATATATATATATA [CACACA_site469],10.2 ± 0.11
19,TAGGCCTTAAATCGTGTGCACTTTTTTTTTTTTTTT,8.925 ± 0.049
20,AAATATATCAATATATATATATATATATATATATAT [XGTACX_negctrl_site544],10.1 ± 0.69
21,AAGCATACATCAAGCACACACACACCCACACCCACA [CACACA_site372],8.76 ± 0.48
